The subject of data set [1] is cKIT positive NCI-H526 SCLC tumor xenograft. The conditions noted are these: 10 mg/kg single dose IV, Day 21. An excerpt: For the structure of the Eg5 inhibitor 5B, see Table 1. […] Mice were enrolled in the study 13 days post implantation with average tumor volume of ˜182 mm^3-270 mm^3.
For data set [2], the target named is T1, mouse cKIT (Mus musculus, UniProt P05532).
T1 construct: cKIT receptor extracellular domains (ECD) were diluted in a 2-fold series
T1 sequence (P05532 25-527 limits assumed): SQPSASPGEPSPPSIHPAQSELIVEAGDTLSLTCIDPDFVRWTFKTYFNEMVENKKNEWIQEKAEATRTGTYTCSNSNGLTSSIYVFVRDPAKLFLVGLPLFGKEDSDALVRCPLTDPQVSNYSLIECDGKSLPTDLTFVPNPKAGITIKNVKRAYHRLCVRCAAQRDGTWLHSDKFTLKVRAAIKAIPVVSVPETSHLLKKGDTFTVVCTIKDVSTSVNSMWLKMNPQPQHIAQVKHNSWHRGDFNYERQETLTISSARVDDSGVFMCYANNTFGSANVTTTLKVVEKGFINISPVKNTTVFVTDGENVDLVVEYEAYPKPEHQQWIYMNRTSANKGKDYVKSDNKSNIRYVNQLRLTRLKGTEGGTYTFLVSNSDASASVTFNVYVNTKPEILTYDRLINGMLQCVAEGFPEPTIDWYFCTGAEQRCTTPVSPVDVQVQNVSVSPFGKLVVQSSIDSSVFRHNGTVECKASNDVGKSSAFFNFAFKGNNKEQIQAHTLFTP
The experiment in a line: SPR (Biacore) affinity measurement. The conditions noted are these: 25° C., 1:1 model. In kind it is binding. The method, then:
(§1) Affinity of the antibodies to cKIT species orthologues and also to cKIT was determined using SPR technology using a Biacore® 2000 instrument (GE Healthcare, Pittsburgh, PA) and with CM5 sensor chips.
(§2) Briefly, HBS-P (0.01 M HEPES, pH 7.4, 0.15 M NaCl, 0.005% Surfactant P20) supplemented with 2% Odyssey® blocking buffer (Li-Cor Biosciences, Lincoln, NE) was used as the running buffer for all the experiments. The immobilization level and analyte interactions were measured by response unit (RU). Pilot experiments were performed to test and confirm the feasibility of the immobilization of the anti-human Fc antibody (Catalog number BR100839, GE Healthcare, Pittsburgh, PA) and the capture of the test antibodies.
(§3) For kinetic measurements, the experiments were performed in which the antibodies were captured to the sensor chip surface via the immobilized anti-human Fc antibody and the ability of the cKIT proteins to bind in free solution was determined. Briefly, 25 μg/ml of anti-human Fc antibody at pH 5 was immobilized on a CM5 sensor chip through amine coupling at flow rate of 5 μl/minute on all two flow cells to reach 10,500 RUs. 0.1-1 μg/ml of test antibodies were then injected at 10 μl/min for 1 minute. Captured levels of the antibodies were generally kept below 200 RUs. Subsequently, 3.125 −50 nM of cKIT receptor extracellular domains (ECD) were diluted in a 2-fold series and injected at a flow rate of 40 μl/min for 3 min over both reference and test flow cells. Table of tested ECDs is listed below (Table 6). Dissociation of the binding was followed for 10 min. After each injection cycle, the chip surface was regenerated with 3 M MgCl2 at 10 μl/min for 30 seconds.
On the technique in general: In SPR one partner is held on a chip, and binding of the other changes the refractive index at the surface.

The target of data set [3] is T2, human cKIT (Homo sapiens, UniProt P10721).
T2 construct: Human cKIT tr. variant 2 , residues 26-520-TAG; made in house; host or cells: HEK293 derived cell line 293FS, transient transfection
Kind of data set: SPR (Biacore) affinity measurement. The format is binding. The conditions noted are these: 25° C., 1:1 model. The method, then: as §1, §2, §3

For data set [4], the target named is rat cKIT. Kind of data set: SPR (Biacore) affinity measurement. In kind it is binding. The conditions noted are these: 25° C., 1:1 model. The procedure: as §1, §2, §3

T2 sequence (P10721 with tags, fused parts or gaps isoform P10721-2): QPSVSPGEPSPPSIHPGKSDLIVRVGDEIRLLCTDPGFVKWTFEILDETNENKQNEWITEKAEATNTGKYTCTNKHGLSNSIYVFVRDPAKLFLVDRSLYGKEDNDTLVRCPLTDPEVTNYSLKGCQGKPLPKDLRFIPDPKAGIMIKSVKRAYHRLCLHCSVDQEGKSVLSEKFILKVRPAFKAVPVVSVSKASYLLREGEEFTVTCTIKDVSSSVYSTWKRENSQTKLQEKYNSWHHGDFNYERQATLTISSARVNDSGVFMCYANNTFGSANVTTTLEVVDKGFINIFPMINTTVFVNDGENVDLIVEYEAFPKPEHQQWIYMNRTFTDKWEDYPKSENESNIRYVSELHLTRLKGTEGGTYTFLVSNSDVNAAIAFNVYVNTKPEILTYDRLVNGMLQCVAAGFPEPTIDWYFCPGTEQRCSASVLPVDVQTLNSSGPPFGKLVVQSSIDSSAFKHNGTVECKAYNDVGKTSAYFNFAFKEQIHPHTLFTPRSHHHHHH

B1: 20507 (antibody)
heavy: QVQLVQSGAEVKKPGSSVKVSCKASGGTFSSYAISWVRQAPGQGLEWMGTIGPFEGQPRYAQKFQGRVTITADESTSTAYMELSSLRSEDTAVYYCARGGYISDFDVWGQGTLVTVSSASTKGPSVFPLAPSSKSTSGGTAALGCLVKDYFPEPVTVSWNSGALTSGVHTFPAVLQSSGLYSLSSVVTVPSSSLGTQTYICNVNHKPSNTKVDKRV[human IgG1 Fc not spelt out]
light: DIQMTQSPSSLSASVGDRVTITCRASQSISNYLAWYQQKPGKAPKLLIYDASSLQSGVPSRFSGSGSGTDFTLTISSLQPEDFATYYCQQYYYESITFGQGTKVEIKRTVAAPSVFIFPPSDEQLKSGTASVVCLLNNFYPREAKVQWKVDNALQSGNSQESVTEQDSKDSTYSLSSTLTLSKADYEKHKVYACEVTHQGLSSPVTKSFNRGEC
The term Kd denotes the equilibrium constant for the complex coming apart. Low readings indicate a tighter complex, high ones a looser complex. As for B1, in data set [1], the “Mean change of body weight (% ± SEM)” value is listed as 8.2 ± 1.2%, the “Mean change of tumor volume (mm3 ± SEM)” value is recorded as 1330 ± 49 mm3, the “Mean change of tumor volume vs control (ΔT/ΔC) (%)” value worked out at 96% and the “Survival (survivors/total)” value is recorded as 5/5. Besides, the “Affinity mouse cKIT (nM)” value in data set [2] was “Not reactive”. For the same molecule, in data set [3], the “Affinity human cKIT (nM)” value is reported as “nanomolar level” and the Kd turned out to be 1.8 nM. In addition, in data set [4], the “Affinity to rat cKIT (nM)” value is on record as “Not reactive”.
